Measurements published in patent publication US20240076403A1 (SIMCERE ZAIMING PHARMACEUTICAL, published 2024).

Experiments:
[1] = target: T1, monkey HER2-His protein (monkey); assay: ELISA, coated monkey HER2-His
T1 construct: Bought protein; also called monkey HER2 protein

[2] = target: T2, monkey HER2 on HEK293T-monkey-HER2 cells (monkey); assay: FACS on HEK293T-monkey-HER2 cells
T2 construct: whole, on cells

[3] = target: T3, murine HER2-His protein (murine, UniProt P70424 23-653); assay: ELISA, coated murine HER2-His
T3 construct: Bought protein; also called murine HER2 protein; not shown: His tag

[4] = target: T1, monkey HER2-His protein; assay: SPR, antibody captured on Protein A chip, monkey HER2-His analyte, 1:1 model

| Binder | OD450 nm at 0.0001 nM antibody [1] [OD450 nm] | OD450 nm at 0.001 nM antibody [1] [OD450 nm] | OD450 nm at 0.01 nM antibody [1] [OD450 nm] | OD450 nm at 0.1 nM antibody [1] [OD450 nm] | OD450 nm at 1 nM antibody [1] [OD450 nm] | OD450 nm at 10 nM antibody [1] [OD450 nm] | OD450 nm at 100 nM antibody [1] [OD450 nm] | EC50 [2] [nM] | Max MFI [2] [MFI] | OD450 nm at 0.0001 nM antibody [3] [OD450 nm] | OD450 nm at 0.001 nM antibody [3] [OD450 nm] | OD450 nm at 0.01 nM antibody [3] [OD450 nm] | OD450 nm at 0.1 nM antibody [3] [OD450 nm] | OD450 nm at 1 nM antibody [3] [OD450 nm] | OD450 nm at 10 nM antibody [3] [OD450 nm] | OD450 nm at 100 nM antibody [3] [OD450 nm] | Kd [4] [nM] | koff [4] [s⁻¹] | kon [4] [M⁻¹ s⁻¹] |
| --- | --- | --- | --- | --- | --- | --- | --- | --- | --- | --- | --- | --- | --- | --- | --- | --- | --- | --- | --- |
| NB146-62 VHH-hFc (Fc fusion, the junction is not described) EVQVVESGGELVQPGGSLRLSCAASGFSISTYTMTWVRQGPGKGLEWVSTISPLRWGQSTTSYADSVKGRFTISRDNAKNTLYLQMNSLNPDDTGVYYCSRPDGKRGQGTQVTVSS[human IgG1 Fc with changes not written out] | 0.05 | 0.06 | 0.09 | 0.4 | 1.76 | 2.5 | 2.67 | 4.62 | 18800 | 0.05 | 0.05 | 0.05 | 0.05 | 0.05 | 0.05 | 0.05 | – | – | – |
| NB146-12 VHH-hFc (Fc fusion, the junction is not described) QLQLVESGGGLVQPGGSLRLSCAASGFIFSDTAMNWVRQAPGKGLEWVSSINWSGTHTSYADSVKGRFKISRDNAKKALYLQMNSLQPEDTAVYACARGWVDSTRTVVAPLTKGQGTQVTVSS[human IgG1 Fc with changes not written out] | 0.05 | 0.06 | 0.12 | 0.6 | 2.16 | 2.49 | 3.23 | 1.4 | 21600 | 0.05 | 0.05 | 0.05 | 0.05 | 0.05 | 0.05 | 0.05 | 53.5 | 0.031 | 580000 |

Binders with a lower EC50 [2], results first:

| OD450 nm at 0.0001 nM antibody [1] [OD450 nm] | OD450 nm at 0.001 nM antibody [1] [OD450 nm] | OD450 nm at 0.01 nM antibody [1] [OD450 nm] | OD450 nm at 0.1 nM antibody [1] [OD450 nm] | OD450 nm at 1 nM antibody [1] [OD450 nm] | OD450 nm at 10 nM antibody [1] [OD450 nm] | OD450 nm at 100 nM antibody [1] [OD450 nm] | EC50 [2] [nM] | Max MFI [2] [MFI] | OD450 nm at 0.0001 nM antibody [3] [OD450 nm] | OD450 nm at 0.001 nM antibody [3] [OD450 nm] | OD450 nm at 0.01 nM antibody [3] [OD450 nm] | OD450 nm at 0.1 nM antibody [3] [OD450 nm] | OD450 nm at 1 nM antibody [3] [OD450 nm] | OD450 nm at 10 nM antibody [3] [OD450 nm] | OD450 nm at 100 nM antibody [3] [OD450 nm] | Kd [4] [nM] | koff [4] [s⁻¹] | kon [4] [M⁻¹ s⁻¹] | Binder |
| --- | --- | --- | --- | --- | --- | --- | --- | --- | --- | --- | --- | --- | --- | --- | --- | --- | --- | --- | --- |
| 0.05 | 0.06 | 0.16 | 1.01 | 2.66 | 2.84 | 2.82 | 1.09 | 20900 | 0.05 | 0.05 | 0.05 | 0.05 | 0.05 | 0.05 | 0.08 | 38.6 | 0.00379 | 98100 | NB147-39 VHH-hFc (Fc fusion, the junction is not described) QLQLVESGGDLVQPGGSLRLSCAGSGFTLDAYAIGWFRQAPGKEREGVSCISSSGGTTSYADSVKGRFTISRDYAKNTVYLQMNAVKPEDTAVYYCAIERTCERIGASQFRGQGTQVTVSV[human IgG1 Fc with changes not written out] |
| 0.07 | 0.08 | 0.2 | 1.04 | 3 | 3.2 | 3.32 | 1.05 | 20800 | 0.05 | 0.05 | 0.05 | 0.05 | 0.05 | 0.05 | 0.06 | 190 | 0.0121 | 63600 | NB146-171 VHH-hFc (Fc fusion, the junction is not described) EVQLVESGGGLVQPGGSLRLSCAASGFTFSSYPMAWVRQAPGKGEEWVSWISNSGGRTTYADSVKGRFTISRDNAKRTVYLQMNKLQPEDTAVYSCTRASGNGERGRGTQVTVSS[human IgG1 Fc with changes not written out] |
